# Measured values as given in article PMC9911399, “Two distinct binding modes provide the RNA-binding protein RbFox with extraordinary sequence specificity”.
# Residue numbers refer to the chain shown, from its start. Some of the results follow.
# B1: GGCGAUU (DNA:RNA)
# RNA: GGGAGACCGGAAUUCAGAUUGUCCGGCGAUUUUAAAUCCCGUCGUAGCCACCA
# DNA 1: CAATCTGAATTCCGGTCTCCC
# DNA 2: TGGTGGCTACGACGGGATT
# B2: UAGAAAA (DNA:RNA)
# RNA: B1 RNA with G25U, G26A, C27G, G28A, U30A, U31A
# DNA 1: CAATCTGAATTCCGGTCTCCC
# DNA 2: TGGTGGCTACGACGGGATT
# B3: CGACGAU (DNA:RNA)
# RNA: B1 RNA with G25C, C27A, G28C, A29G, U30A
# DNA 1: CAATCTGAATTCCGGTCTCCC
# DNA 2: TGGTGGCTACGACGGGATT
# B4: CAAAACA (DNA:RNA)
# RNA: B1 RNA with G25C, G26A, C27A, G28A, U30C, U31A
# DNA 1: CAATCTGAATTCCGGTCTCCC
# DNA 2: TGGTGGCTACGACGGGATT
# B5: CGGGUAU (DNA:RNA)
# RNA: B1 RNA with G25C, C27G, A29U, U30A
# DNA 1: CAATCTGAATTCCGGTCTCCC
# DNA 2: TGGTGGCTACGACGGGATT
# B6: AACGCAA (DNA:RNA)
# RNA: B1 RNA with G25A, G26A, A29C, U30A, U31A
# DNA 1: CAATCTGAATTCCGGTCTCCC
# DNA 2: TGGTGGCTACGACGGGATT
# B7: CAGCGAA (DNA:RNA)
# RNA: GGGAGACCGGAAUUCAGAUUGUCCCAGCGAAUUAAAUCCCGUCGUAGCCACCA
# DNA 1: CAATCTGAATTCCGGTCTCCC
# DNA 2: TGGTGGCTACGACGGGATT
# B8: UGCCCAG (DNA:RNA)
# RNA: B7 RNA with C25U, A26G, G27C, G29C, A31G
# DNA 1: CAATCTGAATTCCGGTCTCCC
# DNA 2: TGGTGGCTACGACGGGATT
# B9: CCGAAUG (DNA:RNA)
# RNA: B7 RNA with A26C, C28A, G29A, A30U, A31G
# DNA 1: CAATCTGAATTCCGGTCTCCC
# DNA 2: TGGTGGCTACGACGGGATT
# B10: GUCCUCC (DNA:RNA)
# RNA: B1 RNA with G26U, G28C, A29U, U30C, U31C
# DNA 1: CAATCTGAATTCCGGTCTCCC
# DNA 2: TGGTGGCTACGACGGGATT
# B11: AGUCCAA (DNA:RNA)
# RNA: B7 RNA with C25A, A26G, G27U, G29C
# DNA 1: CAATCTGAATTCCGGTCTCCC
# DNA 2: TGGTGGCTACGACGGGATT
# B12: UGUGCAG (DNA:RNA)
# RNA: B1 RNA with G25U, C27U, A29C, U30A, U31G
# DNA 1: CAATCTGAATTCCGGTCTCCC
# DNA 2: TGGTGGCTACGACGGGATT
# B13: CCAGCGU (DNA:RNA)
# RNA: B1 RNA with G25C, G26C, C27A, A29C, U30G
# DNA 1: CAATCTGAATTCCGGTCTCCC
# DNA 2: TGGTGGCTACGACGGGATT
# B14: UUUUACG (DNA:RNA)
# RNA: B1 RNA with G25U, G26U, C27U, G28U, U30C, U31G
# DNA 1: CAATCTGAATTCCGGTCTCCC
# DNA 2: TGGTGGCTACGACGGGATT
# B15: ACGGGGC (DNA:RNA)
# RNA: B7 RNA with C25A, A26C, C28G, A30G, A31C
# DNA 1: CAATCTGAATTCCGGTCTCCC
# DNA 2: TGGTGGCTACGACGGGATT
# B16: UUGAAGC (DNA:RNA)
# RNA: B7 RNA with C25U, A26U, C28A, G29A, A30G, A31C
# DNA 1: CAATCTGAATTCCGGTCTCCC
# DNA 2: TGGTGGCTACGACGGGATT
# B17: ACUCUUC (DNA:RNA)
# RNA: B7 RNA with C25A, A26C, G27U, G29U, A30U, A31C
# DNA 1: CAATCTGAATTCCGGTCTCCC
# DNA 2: TGGTGGCTACGACGGGATT
# B18: CACGCUC (DNA:RNA)
# RNA: B1 RNA with G25C, G26A, A29C, U31C
# DNA 1: CAATCTGAATTCCGGTCTCCC
# DNA 2: TGGTGGCTACGACGGGATT
# B19: CUGCGAA (DNA:RNA)
# RNA: B7 RNA with A26U
# DNA 1: CAATCTGAATTCCGGTCTCCC
# DNA 2: TGGTGGCTACGACGGGATT
# B20: CUGUAAA (DNA:RNA)
# RNA: B7 RNA with A26U, C28U, G29A
# DNA 1: CAATCTGAATTCCGGTCTCCC
# DNA 2: TGGTGGCTACGACGGGATT
# B21: UACGGGC (DNA:RNA)
# RNA: B7 RNA with C25U, G27C, C28G, A30G, A31C
# DNA 1: CAATCTGAATTCCGGTCTCCC
# DNA 2: TGGTGGCTACGACGGGATT
# B22: CCUCCCC (DNA:RNA)
# RNA: B7 RNA with A26C, G27U, G29C, A30C, A31C
# DNA 1: CAATCTGAATTCCGGTCTCCC
# DNA 2: TGGTGGCTACGACGGGATT
# B23: UGCAUUA (DNA:RNA)
# RNA: B1 RNA with G25U, G28A, A29U, U31A
# DNA 1: CAATCTGAATTCCGGTCTCCC
# DNA 2: TGGTGGCTACGACGGGATT
# B24: GAUUCUU (DNA:RNA)
# RNA: B1 RNA with G26A, C27U, G28U, A29C
# DNA 1: CAATCTGAATTCCGGTCTCCC
# DNA 2: TGGTGGCTACGACGGGATT
# B25: UAAGUCU (DNA:RNA)
# RNA: B1 RNA with G25U, G26A, C27A, A29U, U30C
# DNA 1: CAATCTGAATTCCGGTCTCCC
# DNA 2: TGGTGGCTACGACGGGATT
# B26: AUCACUU (DNA:RNA)
# RNA: B1 RNA with G25A, G26U, G28A, A29C
# DNA 1: CAATCTGAATTCCGGTCTCCC
# DNA 2: TGGTGGCTACGACGGGATT
# B27: CUCAGCG (DNA:RNA)
# RNA: B7 RNA with A26U, G27C, C28A, A30C, A31G
# DNA 1: CAATCTGAATTCCGGTCTCCC
# DNA 2: TGGTGGCTACGACGGGATT
# B28: GAAAACC (DNA:RNA)
# RNA: B1 RNA with G26A, C27A, G28A, U30C, U31C
# DNA 1: CAATCTGAATTCCGGTCTCCC
# DNA 2: TGGTGGCTACGACGGGATT
# B29: CGCACCG (DNA:RNA)
# RNA: B1 RNA with G25C, G28A, A29C, U30C, U31G
# DNA 1: CAATCTGAATTCCGGTCTCCC
# DNA 2: TGGTGGCTACGACGGGATT
# B30: AACGGUA (DNA:RNA)
# RNA: B7 RNA with C25A, G27C, C28G, A30U
# DNA 1: CAATCTGAATTCCGGTCTCCC
# DNA 2: TGGTGGCTACGACGGGATT
# B31: UCCAAAG (DNA:RNA)
# RNA: B1 RNA with G25U, G26C, G28A, U30A, U31G
# DNA 1: CAATCTGAATTCCGGTCTCCC
# DNA 2: TGGTGGCTACGACGGGATT
# Target: T1, RBFOX1 RRM RbFoxmut (Fox-RRM*) (Homo sapiens, UniProt Q9NWB1 109-208, R118D;E147R;N151S;E152T)
# T1 sequence: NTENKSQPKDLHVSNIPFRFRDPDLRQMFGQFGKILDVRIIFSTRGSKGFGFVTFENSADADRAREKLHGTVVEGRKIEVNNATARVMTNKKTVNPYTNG
# Experiment: EMSA; HiTS-Eq, 1 nM pool, 10 min; buffer printed only for the single-RNA assays: 10 mM Tris pH 7.5, 150 mM NaCl, 3.4 mM EDTA, 0.001% NP-40, 30 C
# Details: tags: His6 N-terminal (pET28a); label: 5' 32P
# In short: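 Purified RbFox RRM (wild type or mutant) was equilibrated for 10 min in 50 µL with 1 nM of a 5′-radiolabelled pool of RNA with 7 randomized nucleotides, its flanks annealed to DNA oligonucleotides, across increasing protein concentrations. Free RNA was separated by 8% native PAGE, excised, reverse-transcribed, PCR-barcoded and sequenced on an Illumina HiSeq 2500. Relative association constants came from read-count changes of each variant against the control reaction, normalised to the cognate motif.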
row,Binder,binding signal
1,B1,0.0737 KA relative to UGCAUGU
2,B2,0.0641 KA relative to UGCAUGU
3,B3,0.0442 KA relative to UGCAUGU
4,B4,0.0787 KA relative to UGCAUGU
5,B5,0.119 KA relative to UGCAUGU
6,B6,0.0788 KA relative to UGCAUGU
7,B7,0.122 KA relative to UGCAUGU
8,B8,0.0903 KA relative to UGCAUGU
9,B9,1.39 KA relative to UGCAUGU
10,B10,0.0486 KA relative to UGCAUGU
11,B11,0.0892 KA relative to UGCAUGU
12,B12,0.0989 KA relative to UGCAUGU
13,B13,0.127 KA relative to UGCAUGU
14,B14,0.132 KA relative to UGCAUGU
15,B15,0.104 KA relative to UGCAUGU
16,B16,0.0981 KA relative to UGCAUGU

row,Binder,binding signal
1,B17,0.0627 KA relative to UGCAUGU
2,B18,0.0532 KA relative to UGCAUGU
3,B19,0.166 KA relative to UGCAUGU
4,B20,0.0859 KA relative to UGCAUGU
5,B21,0.0613 KA relative to UGCAUGU
6,B22,0.057 KA relative to UGCAUGU
7,B23,0.163 KA relative to UGCAUGU
8,B24,0.0806 KA relative to UGCAUGU
9,B25,0.0462 KA relative to UGCAUGU
10,B26,0.0896 KA relative to UGCAUGU
11,B27,0.113 KA relative to UGCAUGU
12,B28,0.0367 KA relative to UGCAUGU
13,B29,0.17 KA relative to UGCAUGU
14,B30,0.139 KA relative to UGCAUGU
15,B31,0.0839 KA relative to UGCAUGU
